Laboratory results taken from the supplement of paper PMC9334596.
Several values for one entry are separate records, joined by “and”; a condition that tells them apart may be missing. Equal entries are not always repeated. In all, about 5,300 compounds were measured (“PER2::LUC luminescence relative to vehicle control”: median about 0.96, highest 2% from about 1.3 on). The list shows a part of the results.

Test system: mPer2Luc MEF
Experiment: PER2::LUC luminescence relative to vehicle control (fold of vehicle); higher = higher PER2::LUC reporter signal
Conditions: 10 µM
Summary of the method: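 Each value gives PER2::LUC luminescence as fold of vehicle control, measured with the ONE-Glo luciferase assay system in mouse embryonic fibroblasts carrying the mPer2Luc reporter. Cells grown in DMEM with 10% FBS at 37 °C and 5% CO2 were seeded at ~3000 per well in 384-well plates. Library compounds were added at 10 μM 48 h later, and readings were taken 24 h and 30 h after treatment.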

Compound	PER2::LUC luminescence (time after treatment 24 h)	PER2::LUC luminescence (time after treatment 30 h)
NC(=O)N/N=C/c1ccc([N+](=O)[O-])o1	1.05 and 0.915	0.913 and 0.857
COc1ccc(C2(CNC(=O)c3ccc(NC(=O)c4ccco4)cc3)CCOCC2)cc1	1.06	1.03
COc1c(-c2ccccc2)oc2cc(O)cc(O)c2c1=O	1.02	0.951
O=S(=O)(c1ccccc1)c1cnc2c(N3CCNCC3)cccc2c1	0.884	0.797
CN(NC(=O)CC(=O)NN(C)C(=S)c1ccccc1)C(=S)c1ccccc1	1.68	1.1
CC(C)C[C@H](NC(=O)[C@H](CCCCN)NC(=O)[C@H](CCCNC(=N)N)NC(=O)[C@H](C)NC(=O)[C@H](CO)NC(=O)[C@H](CCCCN)NC(=O)[C@H](CCCNC(=N)N)NC(=O)[C@H](C)NC(=O)CNC(=O)[C@@H](NC(=O)[C@H](Cc1ccccc1)NC(=O)CNC(=O)CNC(=O)[C@@H](N)Cc1ccccc1)[C@@H](C)O)C(=O)N[C@@H](C)C(=O)N[C@@H](CC(N)=O)C(=O)N[C@@H](CCC(N)=O)C(=O)O	1.05	0.93
C=C1C(=O)O[C@H](CCCCCCCC)[C@H]1C(=O)O	1.05	1
COc1ccc(CCN2CN=C(SCc3ccc(Cl)cc3)NC2)cc1OC	0.912	0.83
C=CCCCCCCCCCCCC(O)CC(O)CO (centres undefined)	0.967	0.789
CN(C)C(=N)N=C(N)N	1.07	1.16
O=C1c2ccccc2-n2c1nc1ccccc1c2=O	0.998	0.885
CO[C@@H]1[C@@H](OC(N)=O)[C@@H](O)[C@H](Oc2ccc3c(O)c(NC(=O)c4ccc(O)c(CC=C(C)C)c4)c(=O)oc3c2C)OC1(C)C	0.851	0.977
O=Nc1c(-c2c(O)[nH]c3cc(Br)ccc23)[nH]c2ccccc12	0.663	0.788
C=C=CCNC(=O)c1ccc(F)cc1	0.754	0.841
CC(=O)Oc1cccc(O)c1	0.741 and 0.687	1.09 and 0.878
CCN1CCN(C(=O)N[C@@H](C(=O)N[C@@H]2C(=O)N3[C@@H]2SC(C)(C)[C@@H]3C(=O)O)c2ccccc2)C(=O)C1=O	0.919	0.832
CC(C)[C@H](CO)Nc1nc(Sc2cccc(N)c2)c2ncn(C(C)C)c2n1	0.582	0.686
OCCN1CCN(CCCN2c3ccccc3Sc3ccc(Cl)cc32)CC1	0.659	0.622
CC(C)(C)NCc1cc(Nc2ccnc3cc(Cl)ccc23)c2c(c1O)CCCC2	0.778	0.809
CN(C)CCc1c[nH]c2ccc(Cn3cncn3)cc12	0.497	0.919
Nc1ccc(S(=O)(=O)c2ccc(N)cc2)cc1	1.04 and 0.928	1.02 and 0.889
O=C(c1ccc(C(=O)N2CCC(N3CCCC3)CC2)c(Nc2ccccc2)c1)N1CCC(N2CCCC2)CC1	0.991	1.03
